Laboratory results reported in PMC9911399, “Two distinct binding modes provide the RNA-binding protein RbFox with extraordinary sequence specificity”.
Where a chain is given by its changes, count along the chain named. The list shows a part of the results.

T1: RBFOX1 RRM RbFoxmut (Fox-RRM*) (Homo sapiens, UniProt Q9NWB1 109-208, R118D;E147R;N151S;E152T)
T1 sequence: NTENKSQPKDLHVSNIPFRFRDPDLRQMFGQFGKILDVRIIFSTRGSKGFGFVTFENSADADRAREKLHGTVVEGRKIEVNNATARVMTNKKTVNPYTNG

B1: UCUCGAU (DNA:RNA)
RNA: GGGAGACCGGAAUUCAGAUUGUCCUCUCGAUUUAAAUCCCGUCGUAGCCACCA
DNA 1: CAATCTGAATTCCGGTCTCCC
DNA 2: TGGTGGCTACGACGGGATT
B2: UAUCUGA (DNA:RNA)
RNA: B1 RNA with C26A, G29U, A30G, U31A
DNA 1: CAATCTGAATTCCGGTCTCCC
DNA 2: TGGTGGCTACGACGGGATT
B3: CCAACUU (DNA:RNA)
RNA: B1 RNA with U25C, U27A, C28A, G29C, A30U
DNA 1: CAATCTGAATTCCGGTCTCCC
DNA 2: TGGTGGCTACGACGGGATT
B4: CGUCCAG (DNA:RNA)
RNA: B1 RNA with U25C, C26G, G29C, U31G
DNA 1: CAATCTGAATTCCGGTCTCCC
DNA 2: TGGTGGCTACGACGGGATT
B5: CGGGACC (DNA:RNA)
RNA: GGGAGACCGGAAUUCAGAUUGUCCCGGGACCUUAAAUCCCGUCGUAGCCACCA
DNA 1: CAATCTGAATTCCGGTCTCCC
DNA 2: TGGTGGCTACGACGGGATT
B6: ACACCAU (DNA:RNA)
RNA: B1 RNA with U25A, U27A, G29C
DNA 1: CAATCTGAATTCCGGTCTCCC
DNA 2: TGGTGGCTACGACGGGATT
B7: AGGCGCC (DNA:RNA)
RNA: B5 RNA with C25A, G28C, A29G
DNA 1: CAATCTGAATTCCGGTCTCCC
DNA 2: TGGTGGCTACGACGGGATT
B8: GACAACU (DNA:RNA)
RNA: B5 RNA with C25G, G26A, G27C, G28A, C31U
DNA 1: CAATCTGAATTCCGGTCTCCC
DNA 2: TGGTGGCTACGACGGGATT
B9: UAGCGAG (DNA:RNA)
RNA: B1 RNA with C26A, U27G, U31G
DNA 1: CAATCTGAATTCCGGTCTCCC
DNA 2: TGGTGGCTACGACGGGATT
B10: AUGUUGU (DNA:RNA)
RNA: B5 RNA with C25A, G26U, G28U, A29U, C30G, C31U
DNA 1: CAATCTGAATTCCGGTCTCCC
DNA 2: TGGTGGCTACGACGGGATT
B11: UGAGUUU (DNA:RNA)
RNA: B5 RNA with C25U, G27A, A29U, C30U, C31U
DNA 1: CAATCTGAATTCCGGTCTCCC
DNA 2: TGGTGGCTACGACGGGATT
B12: CCUUCAU (DNA:RNA)
RNA: B1 RNA with U25C, C28U, G29C
DNA 1: CAATCTGAATTCCGGTCTCCC
DNA 2: TGGTGGCTACGACGGGATT
B13: UAGAUGA (DNA:RNA)
RNA: B5 RNA with C25U, G26A, G28A, A29U, C30G, C31A
DNA 1: CAATCTGAATTCCGGTCTCCC
DNA 2: TGGTGGCTACGACGGGATT
B14: UCGAGAG (DNA:RNA)
RNA: B1 RNA with U27G, C28A, U31G
DNA 1: CAATCTGAATTCCGGTCTCCC
DNA 2: TGGTGGCTACGACGGGATT
B15: GCCCUAA (DNA:RNA)
RNA: B1 RNA with U25G, U27C, G29U, U31A
DNA 1: CAATCTGAATTCCGGTCTCCC
DNA 2: TGGTGGCTACGACGGGATT
B16: UGCUGGG (DNA:RNA)
RNA: B1 RNA with C26G, U27C, C28U, A30G, U31G
DNA 1: CAATCTGAATTCCGGTCTCCC
DNA 2: TGGTGGCTACGACGGGATT
B17: UGUGGCC (DNA:RNA)
RNA: B5 RNA with C25U, G27U, A29G
DNA 1: CAATCTGAATTCCGGTCTCCC
DNA 2: TGGTGGCTACGACGGGATT
B18: CCGUAGG (DNA:RNA)
RNA: B5 RNA with G26C, G28U, C30G, C31G
DNA 1: CAATCTGAATTCCGGTCTCCC
DNA 2: TGGTGGCTACGACGGGATT
B19: CCAGUCG (DNA:RNA)
RNA: B5 RNA with G26C, G27A, A29U, C31G
DNA 1: CAATCTGAATTCCGGTCTCCC
DNA 2: TGGTGGCTACGACGGGATT
B20: AUUACAU (DNA:RNA)
RNA: B1 RNA with U25A, C26U, C28A, G29C
DNA 1: CAATCTGAATTCCGGTCTCCC
DNA 2: TGGTGGCTACGACGGGATT

target: T1, RBFOX1 RRM RbFoxmut (Fox-RRM*); experiment: EMSA; HiTS-Eq, 1 nM pool, 10 min; buffer printed only for the single-RNA assays: 10 mM Tris pH 7.5, 150 mM NaCl, 3.4 mM EDTA, 0.001% NP-40, 30 C; conditions: tags: His6 N-terminal (pET28a); label: 5' 32P
Procedure, shortened: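 Purified wild-type or mutant RbFox RRM at increasing concentrations was equilibrated with 1 nM of 5′-radiolabelled RNA carrying 7 randomized nucleotides for 10 min in 50 µL. Unbound RNA was separated by 8% native PAGE and sequenced. Relative association constants came from read-count changes of each RNA species compared with the control reaction, normalised to the cognate motif.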

Binder | binding signal
B1 | 0.082 KA relative to UGCAUGU
B2 | 0.0364 KA relative to UGCAUGU
B3 | 0.0736 KA relative to UGCAUGU
B4 | 0.107 KA relative to UGCAUGU
B5 | 0.102 KA relative to UGCAUGU
B6 | 0.0962 KA relative to UGCAUGU
B7 | 0.084 KA relative to UGCAUGU
B8 | 0.049 KA relative to UGCAUGU
B9 | 0.0959 KA relative to UGCAUGU
B10 | 0.245 KA relative to UGCAUGU
B11 | 0.0702 KA relative to UGCAUGU
B12 | 0.0914 KA relative to UGCAUGU
B13 | 0.0617 KA relative to UGCAUGU
B14 | 0.126 KA relative to UGCAUGU
B15 | 0.0804 KA relative to UGCAUGU
B16 | 0.0937 KA relative to UGCAUGU
B17 | 0.263 KA relative to UGCAUGU
B18 | 0.0801 KA relative to UGCAUGU
B19 | 0.0813 KA relative to UGCAUGU
B20 | 0.0878 KA relative to UGCAUGU
